Source: the supplement of paper PMC12217912
The list shows a part of the results. The full chains were built here from the parent and the listed change. Inactive controls read about 0.05.

B1: TEV protease; numbered along this chain (parent)
chain: MGESLFKGPRDYNPISSSICHLTNESDGHTTSLYGIGFGPFIITNKHLFRRNNGTLVVQSLHGVFKVKDTTTLQQHLVDGRDMIIIRMPKDFPPFPQKLKFREPQREERICLVTTNFQTKSMSSMVSDTSCTFPSGDGIFWKHWIQTKDGQCGSPLVSTRDGFIVGIHSASNFTNTNNYFTSVPKNFMELLTNQEAQQWVSGWRLNADSVLWGGHKVFMVKPEEPFQPVKEATQL

Variants of: B1
Assay: raw area under fraction-flipped curve 0-4 h after induction (AUC4h, not background-subtracted), DNA-recorder readout of cleavage of the substrate (dimensionless); higher = more cleavage of the substrate by the protease variant
Conditions: temperature: 34 °C; time window: 0-4 h after rhamnose induction
Experimental: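 In vivo DNA recorder in E. coli TOP10(DE3) ΔrhaA at 34 °C. Each TEVp single-site mutant (parent TEVp 0) is paired with a single-site variant of the 7-mer TEVs (canonical ENLYFQ|S). The substrate sits between flexible linkers in a Bxb1-sfGFP-TEVs-SsrA fusion, so cleavage stabilises Bxb1 and speeds flipping of a recombination array, read by NGS. The value is the raw area under the fraction-flipped curve over 0-4 h after rhamnose induction (AUC4h), with ≥20 reads per time point. It is not background-subtracted; inactive controls average about 0.047.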
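Note: Bxb1 expression induced with 0.2% (w/v) L-rhamnose at OD600 near 0.5, cultures sampled hourly, flipped fraction per protease–substrate barcode pair counted by paired-end Illumina sequencing.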

Variant | area with substrate ENLAFQS | area with substrate ENLEFQS | area with substrate ENLFFQS | area with substrate ENLHFQS | area with substrate ENLKFQS | area with substrate ENLQFQS | area with substrate ENLRFQS | area with substrate ENLVFQS | area with substrate ENLDFQS | area with substrate ENLNFQS | area with substrate ENLPFQS | area with substrate ENLSFQS | area with substrate ENLTFQS | area with substrate ENLWFQS | area with substrate ENLLFQS | area with substrate ENLGFQS | area with substrate ENLIFQS | area with substrate ENLMFQS | area with substrate ENLCFQS
MGESLPKGPRDYNPISSSICHLTNESDGHTTSLYGIGFGPFIITNKHLFRRNNGTLVVQSLHGVFKVKDTTTLQQHLVDGRDMIIIRMPKDFPPFPQKLKFREPQREERICLVTTNFQTKSMSSMVSDTSCTFPSGDGIFWKHWIQTKDGQCGSPLVSTRDGFIVGIHSASNFTNTNNYFTSVPKNFMELLTNQEAQQWVSGWRLNADSVLWGGHKVFMVKPEEPFQPVKEATQL [F6P] | 0.0724 | 0.065 | 0.0831 | 0.0519 | 0.0649 | 0.0744 | 0.0684 | 0.0806 | – | – | – | – | – | – | – | – | – | – | –
MGESLWKGPRDYNPISSSICHLTNESDGHTTSLYGIGFGPFIITNKHLFRRNNGTLVVQSLHGVFKVKDTTTLQQHLVDGRDMIIIRMPKDFPPFPQKLKFREPQREERICLVTTNFQTKSMSSMVSDTSCTFPSGDGIFWKHWIQTKDGQCGSPLVSTRDGFIVGIHSASNFTNTNNYFTSVPKNFMELLTNQEAQQWVSGWRLNADSVLWGGHKVFMVKPEEPFQPVKEATQL [F6W] | 0.0643 | – | 0.0664 | 0.0533 | 0.0772 | 0.0702 | – | – | 0.0618 | 0.0648 | 0.0814 | 0.0697 | 0.0756 | 0.0631 | – | – | – | – | –
MGESLDKGPRDYNPISSSICHLTNESDGHTTSLYGIGFGPFIITNKHLFRRNNGTLVVQSLHGVFKVKDTTTLQQHLVDGRDMIIIRMPKDFPPFPQKLKFREPQREERICLVTTNFQTKSMSSMVSDTSCTFPSGDGIFWKHWIQTKDGQCGSPLVSTRDGFIVGIHSASNFTNTNNYFTSVPKNFMELLTNQEAQQWVSGWRLNADSVLWGGHKVFMVKPEEPFQPVKEATQL [F6D] | 0.0577 | 0.056 | 0.0707 | – | 0.0703 | – | – | 0.0933 | 0.077 | 0.0659 | – | – | – | – | 0.0548 | – | – | – | –
MGESLFKGPTDYNPISSSICHLTNESDGHTTSLYGIGFGPFIITNKHLFRRNNGTLVVQSLHGVFKVKDTTTLQQHLVDGRDMIIIRMPKDFPPFPQKLKFREPQREERICLVTTNFQTKSMSSMVSDTSCTFPSGDGIFWKHWIQTKDGQCGSPLVSTRDGFIVGIHSASNFTNTNNYFTSVPKNFMELLTNQEAQQWVSGWRLNADSVLWGGHKVFMVKPEEPFQPVKEATQL [R10T] | 0.0716 | – | – | 0.06 | 0.0781 | 0.0697 | 0.082 | – | – | 0.0581 | – | 0.0717 | – | 0.0731 | – | 0.0568 | 0.0694 | 0.0746 | –
MGESLFKGPFDYNPISSSICHLTNESDGHTTSLYGIGFGPFIITNKHLFRRNNGTLVVQSLHGVFKVKDTTTLQQHLVDGRDMIIIRMPKDFPPFPQKLKFREPQREERICLVTTNFQTKSMSSMVSDTSCTFPSGDGIFWKHWIQTKDGQCGSPLVSTRDGFIVGIHSASNFTNTNNYFTSVPKNFMELLTNQEAQQWVSGWRLNADSVLWGGHKVFMVKPEEPFQPVKEATQL [R10F] | 0.0641 | – | – | 0.0698 | 0.0722 | 0.0667 | 0.0744 | – | 0.0548 | 0.061 | 0.0629 | 0.0632 | – | 0.0899 | 0.0223 | 0.0763 | – | – | 0.0377
MGESLFKGIRDYNPISSSICHLTNESDGHTTSLYGIGFGPFIITNKHLFRRNNGTLVVQSLHGVFKVKDTTTLQQHLVDGRDMIIIRMPKDFPPFPQKLKFREPQREERICLVTTNFQTKSMSSMVSDTSCTFPSGDGIFWKHWIQTKDGQCGSPLVSTRDGFIVGIHSASNFTNTNNYFTSVPKNFMELLTNQEAQQWVSGWRLNADSVLWGGHKVFMVKPEEPFQPVKEATQL [P9I] | 0.062 | 0.0637 | – | 0.0632 | 0.0913 | – | – | 0.0986 | 0.0489 | 0.0803 | 0.0635 | – | – | 0.0705 | 0.0741 | – | – | – | –
MGESCFKGPRDYNPISSSICHLTNESDGHTTSLYGIGFGPFIITNKHLFRRNNGTLVVQSLHGVFKVKDTTTLQQHLVDGRDMIIIRMPKDFPPFPQKLKFREPQREERICLVTTNFQTKSMSSMVSDTSCTFPSGDGIFWKHWIQTKDGQCGSPLVSTRDGFIVGIHSASNFTNTNNYFTSVPKNFMELLTNQEAQQWVSGWRLNADSVLWGGHKVFMVKPEEPFQPVKEATQL [L5C] | 0.0609 | – | 0.089 | 0.0659 | 0.0631 | 0.0655 | – | 0.0807 | 0.0791 | 0.0681 | – | – | – | 0.0712 | – | – | – | 0.0871 | 0.0942
MGESAFKGPRDYNPISSSICHLTNESDGHTTSLYGIGFGPFIITNKHLFRRNNGTLVVQSLHGVFKVKDTTTLQQHLVDGRDMIIIRMPKDFPPFPQKLKFREPQREERICLVTTNFQTKSMSSMVSDTSCTFPSGDGIFWKHWIQTKDGQCGSPLVSTRDGFIVGIHSASNFTNTNNYFTSVPKNFMELLTNQEAQQWVSGWRLNADSVLWGGHKVFMVKPEEPFQPVKEATQL [L5A] | 0.0621 | – | 0.129 | 0.0809 | 0.0853 | 0.0498 | 0.08 | 0.0548 | 0.0608 | – | 0.0538 | 0.0444 | 0.0669 | – | – | – | 0.0995 | – | 0.0743
MGESVFKGPRDYNPISSSICHLTNESDGHTTSLYGIGFGPFIITNKHLFRRNNGTLVVQSLHGVFKVKDTTTLQQHLVDGRDMIIIRMPKDFPPFPQKLKFREPQREERICLVTTNFQTKSMSSMVSDTSCTFPSGDGIFWKHWIQTKDGQCGSPLVSTRDGFIVGIHSASNFTNTNNYFTSVPKNFMELLTNQEAQQWVSGWRLNADSVLWGGHKVFMVKPEEPFQPVKEATQL [L5V] | 0.0689 | – | 0.0852 | – | 0.0871 | – | – | – | 0.054 | – | 0.0572 | 0.0617 | – | – | 0.0569 | – | 0.102 | – | –
MGESLFGGPRDYNPISSSICHLTNESDGHTTSLYGIGFGPFIITNKHLFRRNNGTLVVQSLHGVFKVKDTTTLQQHLVDGRDMIIIRMPKDFPPFPQKLKFREPQREERICLVTTNFQTKSMSSMVSDTSCTFPSGDGIFWKHWIQTKDGQCGSPLVSTRDGFIVGIHSASNFTNTNNYFTSVPKNFMELLTNQEAQQWVSGWRLNADSVLWGGHKVFMVKPEEPFQPVKEATQL [K7G] | 0.0514 | 0.0591 | 0.0782 | 0.0856 | 0.0848 | – | – | 0.0729 | 0.0616 | 0.0543 | 0.0677 | 0.0721 | – | 0.0585 | – | – | – | – | –
